Assay results from the supplement of paper PMC12217912.
The other results are listed elsewhere or left out. Sequences were assembled here from the parent chain. Inactive controls read about 0.05.

B1: TEV protease; numbered along this chain (parent)
chain: MGESLFKGPRDYNPISSSICHLTNESDGHTTSLYGIGFGPFIITNKHLFRRNNGTLVVQSLHGVFKVKDTTTLQQHLVDGRDMIIIRMPKDFPPFPQKLKFREPQREERICLVTTNFQTKSMSSMVSDTSCTFPSGDGIFWKHWIQTKDGQCGSPLVSTRDGFIVGIHSASNFTNTNNYFTSVPKNFMELLTNQEAQQWVSGWRLNADSVLWGGHKVFMVKPEEPFQPVKEATQL

Variants of: B1
Assay: raw area under fraction-flipped curve 0-4 h after induction (AUC4h, not background-subtracted), DNA-recorder readout of cleavage of the substrate (dimensionless); higher = more cleavage of the substrate by the protease variant
Conditions: temperature: 34 °C; time window: 0-4 h after rhamnose induction
Experimental: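 In vivo DNA recorder in E. coli TOP10(DE3) ΔrhaA at 34 °C. Each TEVp single-site mutant (parent TEVp 0) is paired with a single-site variant of the 7-mer TEVs (canonical ENLYFQ|S). The substrate sits between flexible linkers in a Bxb1-sfGFP-TEVs-SsrA fusion, so cleavage stabilises Bxb1 and speeds flipping of a recombination array, read by NGS. The value is the raw area under the fraction-flipped curve over 0-4 h after rhamnose induction (AUC4h), with ≥20 reads per time point. It is not background-subtracted; inactive controls average about 0.047.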
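Further: Bxb1 expression induced with 0.2% (w/v) L-rhamnose at OD600 near 0.5, cultures sampled hourly, flipped fraction per protease–substrate barcode pair counted by paired-end Illumina sequencing.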

## MGESLFKGPRDYNPISSSICHMTNESDGHTTSLYGIGFGPFIITNKHLFRRNNGTLVVQSLHGVFKVKDTTTLQQHLVDGRDMIIIRMPKDFPPFPQKLKFREPQREERICLVTTNFQTKSMSSMVSDTSCTFPSGDGIFWKHWIQTKDGQCGSPLVSTRDGFIVGIHSASNFTNTNNYFTSVPKNFMELLTNQEAQQWVSGWRLNADSVLWGGHKVFMVKPEEPFQPVKEATQL [L22M]
  area with substrate ECLYFQS: 0.0909
  area with substrate EELYFQS: 0.111
  area with substrate EGLYFQS: 0.0952
  area with substrate EHLYFQS: 0.145
  area with substrate EILYFQS: 0.143
  area with substrate EKLYFQS: 0.119
  area with substrate ELLYFQS: 0.0528
  area with substrate EMLYFQS: 0.117
  area with substrate EPLYFQS: 0.0925
  area with substrate EQLYFQS: 0.1
  area with substrate ERLYFQS: 0.0752
  area with substrate ESLYFQS: 0.106
  area with substrate EVLYFQS: 0.0729
  area with substrate EWLYFQS: 0.0827
  area with substrate EYLYFQS: 0.0918

## MGESLFKGPRDYNPISSSICHLTNSSDGHTTSLYGIGFGPFIITNKHLFRRNNGTLVVQSLHGVFKVKDTTTLQQHLVDGRDMIIIRMPKDFPPFPQKLKFREPQREERICLVTTNFQTKSMSSMVSDTSCTFPSGDGIFWKHWIQTKDGQCGSPLVSTRDGFIVGIHSASNFTNTNNYFTSVPKNFMELLTNQEAQQWVSGWRLNADSVLWGGHKVFMVKPEEPFQPVKEATQL [E25S]
  area with substrate ECLYFQS: 0.133
  area with substrate EDLYFQS: 0.0973
  area with substrate EGLYFQS: 0.087
  area with substrate EHLYFQS: 0.129
  area with substrate EILYFQS: 0.095
  area with substrate EKLYFQS: 0.108
  area with substrate ELLYFQS: 0.0865
  area with substrate EMLYFQS: 0.157
  area with substrate EPLYFQS: 0.111
  area with substrate ERLYFQS: 0.105
  area with substrate ESLYFQS: 0.121
  area with substrate ETLYFQS: 0.029
  area with substrate EVLYFQS: 0.107
  area with substrate EYLYFQS: 0.102

## MGESLFKGPRDYNPISSSICHLTNESEGHTTSLYGIGFGPFIITNKHLFRRNNGTLVVQSLHGVFKVKDTTTLQQHLVDGRDMIIIRMPKDFPPFPQKLKFREPQREERICLVTTNFQTKSMSSMVSDTSCTFPSGDGIFWKHWIQTKDGQCGSPLVSTRDGFIVGIHSASNFTNTNNYFTSVPKNFMELLTNQEAQQWVSGWRLNADSVLWGGHKVFMVKPEEPFQPVKEATQL [D27E]
  area with substrate ECLYFQS: 0.107
  area with substrate EELYFQS: 0.133
  area with substrate EILYFQS: 0.117
  area with substrate EKLYFQS: 0.0972
  area with substrate ERLYFQS: 0.091
  area with substrate EVLYFQS: 0.1

## MGESLFKGPRDYNPISSSICHLTNESDYHTTSLYGIGFGPFIITNKHLFRRNNGTLVVQSLHGVFKVKDTTTLQQHLVDGRDMIIIRMPKDFPPFPQKLKFREPQREERICLVTTNFQTKSMSSMVSDTSCTFPSGDGIFWKHWIQTKDGQCGSPLVSTRDGFIVGIHSASNFTNTNNYFTSVPKNFMELLTNQEAQQWVSGWRLNADSVLWGGHKVFMVKPEEPFQPVKEATQL [G28Y]
  area with substrate ECLYFQS: 0.0742
  area with substrate EELYFQS: 0.0991
  area with substrate EGLYFQS: 0.0859
  area with substrate EILYFQS: 0.0796
  area with substrate EKLYFQS: 0.0686
  area with substrate ELLYFQS: 0.0729
  area with substrate EMLYFQS: 0.0573
  area with substrate EPLYFQS: 0.0866
  area with substrate EQLYFQS: 0.1
  area with substrate ESLYFQS: 0.0844
  area with substrate EVLYFQS: 0.0758
  area with substrate EWLYFQS: 0.0771
  area with substrate EYLYFQS: 0.112

## MGESLFKGPRDYNPISSSICHLTNESDGGTTSLYGIGFGPFIITNKHLFRRNNGTLVVQSLHGVFKVKDTTTLQQHLVDGRDMIIIRMPKDFPPFPQKLKFREPQREERICLVTTNFQTKSMSSMVSDTSCTFPSGDGIFWKHWIQTKDGQCGSPLVSTRDGFIVGIHSASNFTNTNNYFTSVPKNFMELLTNQEAQQWVSGWRLNADSVLWGGHKVFMVKPEEPFQPVKEATQL [H29G]
  area with substrate ECLYFQS: 0.0917
  area with substrate ERLYFQS: 0.159
  area with substrate EVLYFQS: 0.0726

## MGESLFKGPRDYNPISSSICHLTNESDGHTTSLHGIGFGPFIITNKHLFRRNNGTLVVQSLHGVFKVKDTTTLQQHLVDGRDMIIIRMPKDFPPFPQKLKFREPQREERICLVTTNFQTKSMSSMVSDTSCTFPSGDGIFWKHWIQTKDGQCGSPLVSTRDGFIVGIHSASNFTNTNNYFTSVPKNFMELLTNQEAQQWVSGWRLNADSVLWGGHKVFMVKPEEPFQPVKEATQL [Y34H]
  area with substrate ECLYFQS: 0.112
  area with substrate EGLYFQS: 0.0571
  area with substrate EILYFQS: 0.125
  area with substrate ESLYFQS: 0.113
  area with substrate EVLYFQS: 0.0937

## MGESLFKGPRDYNPISSSICHLTNESDGHTTSLYAIGFGPFIITNKHLFRRNNGTLVVQSLHGVFKVKDTTTLQQHLVDGRDMIIIRMPKDFPPFPQKLKFREPQREERICLVTTNFQTKSMSSMVSDTSCTFPSGDGIFWKHWIQTKDGQCGSPLVSTRDGFIVGIHSASNFTNTNNYFTSVPKNFMELLTNQEAQQWVSGWRLNADSVLWGGHKVFMVKPEEPFQPVKEATQL [G35A]
  area with substrate ECLYFQS: 0.11
  area with substrate EDLYFQS: 0.129
  area with substrate EQLYFQS: 0.103
  area with substrate EVLYFQS: 0.0831

## MGESLFKGPRDYNPISSSICHLTNESDGHTTSLYDIGFGPFIITNKHLFRRNNGTLVVQSLHGVFKVKDTTTLQQHLVDGRDMIIIRMPKDFPPFPQKLKFREPQREERICLVTTNFQTKSMSSMVSDTSCTFPSGDGIFWKHWIQTKDGQCGSPLVSTRDGFIVGIHSASNFTNTNNYFTSVPKNFMELLTNQEAQQWVSGWRLNADSVLWGGHKVFMVKPEEPFQPVKEATQL [G35D]
  area with substrate ECLYFQS: 0.0413
  area with substrate EFLYFQS: 0.0534
  area with substrate EILYFQS: 0.0407
  area with substrate ESLYFQS: 0.0365

## MGESLFKGPRDYNPISSSICHLTNESDGHTTSLYTIGFGPFIITNKHLFRRNNGTLVVQSLHGVFKVKDTTTLQQHLVDGRDMIIIRMPKDFPPFPQKLKFREPQREERICLVTTNFQTKSMSSMVSDTSCTFPSGDGIFWKHWIQTKDGQCGSPLVSTRDGFIVGIHSASNFTNTNNYFTSVPKNFMELLTNQEAQQWVSGWRLNADSVLWGGHKVFMVKPEEPFQPVKEATQL [G35T]
  area with substrate ECLYFQS: 0.0452
  area with substrate EDLYFQS: 0.0396
  area with substrate EILYFQS: 0.0422
  area with substrate EKLYFQS: 0.0469
  area with substrate EMLYFQS: 0.0526
  area with substrate EPLYFQS: 0.0419
  area with substrate EQLYFQS: 0.0452
  area with substrate ESLYFQS: 0.064
  area with substrate EWLYFQS: 0.0394

## MGESLFKGPRDYNPISSSICHLTNESDGHTTSLYGIGVGPFIITNKHLFRRNNGTLVVQSLHGVFKVKDTTTLQQHLVDGRDMIIIRMPKDFPPFPQKLKFREPQREERICLVTTNFQTKSMSSMVSDTSCTFPSGDGIFWKHWIQTKDGQCGSPLVSTRDGFIVGIHSASNFTNTNNYFTSVPKNFMELLTNQEAQQWVSGWRLNADSVLWGGHKVFMVKPEEPFQPVKEATQL [F38V]
  area with substrate ECLYFQS: 0.102
  area with substrate EGLYFQS: 0.0928
  area with substrate EILYFQS: 0.0805
  area with substrate ELLYFQS: 0.0607
  area with substrate EMLYFQS: 0.111
  area with substrate EPLYFQS: 0.11
  area with substrate EVLYFQS: 0.099
  area with substrate EWLYFQS: 0.0827
  area with substrate EYLYFQS: 0.115

## MGESLFKGPRDYNPISSSICHLTNESDGHTTSLYGIGFGPFIIMNKHLFRRNNGTLVVQSLHGVFKVKDTTTLQQHLVDGRDMIIIRMPKDFPPFPQKLKFREPQREERICLVTTNFQTKSMSSMVSDTSCTFPSGDGIFWKHWIQTKDGQCGSPLVSTRDGFIVGIHSASNFTNTNNYFTSVPKNFMELLTNQEAQQWVSGWRLNADSVLWGGHKVFMVKPEEPFQPVKEATQL [T44M]
  area with substrate ECLYFQS: 0.0662
  area with substrate EELYFQS: 0.0818
  area with substrate EFLYFQS: 0.0694
  area with substrate EHLYFQS: 0.0053
  area with substrate EILYFQS: 0.0616
  area with substrate EKLYFQS: 0.0538
  area with substrate ELLYFQS: 0.0458
  area with substrate EMLYFQS: 0.0648
  area with substrate EPLYFQS: 0.0622
  area with substrate EQLYFQS: 0.0623
  area with substrate ESLYFQS: 0.0504
  area with substrate EVLYFQS: 0.0683
  area with substrate EWLYFQS: 0.0676
  area with substrate EYLYFQS: 0.0627
